This passage reports tumour volume results from patent US11951175B2, “Bioconjugates containing sulfamide linkers for use in treatment” (priority 2016, dated 2024).

The subject of the experiment is Karpas-299 cell xenograft model. The experiment in a line: In vivo efficacy of cAC10 ADCs 112-114, Karpas-299 xenograft. More on the design: species or system CB.17 SCID mice. The note with it: 1 mg/kg i.v.; ADCs with sulfamide linker (113, 114) compared with PEG-linker ADC (112); FIG. 15. As to the method: CR female CB.17 SCID mice, 8- to 12-week-old at the beginning of the experimental phase, obtained from Charles River Laboratories, USA) were injected with 1×10^7 KARPAS-299 tumour cells in a 50% Matrigel subcutaneous in the flank (Karpas-299 cell xenograft model). When the tumour volume was in the range of 100-150 mm^3, groups of eight mice were injected i.v. with either vehicle, 112 (at 1 mg/kg), 113 (at 1 mg/kg), and 114 (1 mg/kg). Tumors were measured twice weekly.

B1: Conjugate 113: cAC10-(6-N3-GalNAc)2 13d conjugated with sulfamide-linker Val-Cit-PAB-MMAE compound 100, average DAR 1.88 (conjugate, chains of the INN, looked up)
heavy: QIQLQQSGPEVVKPGASVKISCKASGYTFTDYYITWVKQKPGQGLEWIGWIYPGSGNTKYNEKFKGKATLTVDTSSSTAFMQLSSLTSEDTAVYFCANYGNYWFAYWGQGTQVTVSA[no letters for human IgG1 constant region]
light: DIVLTQSPASLAVSLGQRATISCKASQSVDFDGDSYMNWYQQKPGQPPKVLIYAASNLESGIPARFSGSGSGTDFTLNIHPVEEEDAATYYCQQSNEDPWTFGGGTKLEIKRTVAAPSVFIFPPSDEQLKSGTASVVCLLNNFYPREAKVQWKVDNALQSGNSQESVTEQDSKDSTYSLSSTLTLSKADYEKHKVYACEVTHQGLSSPVTKSFNRGEC
modifications: sulfamide Val-Cit-PAB-MMAE, DAR 1.88
As to B1, the tumour volume result was “significantly outperform”.
